Hit rate of the full screen: of about 370,000 compounds, about 500 (0.14%) were called active. The inconclusive results got no clear call from the source; some entries with a clear call stand among them for comparison. Calls follow the shape of the dose curve; as a rule, active = well fitted activation curve with a large enough effect; inconclusive = small, poorly fitted or top-dose-only effect; inactive = no such curve, though single readings can be large or run the other way. No potency is given beside an inconclusive call; the fits are too rough.
Assay: qHTS of alpha-syn Inhibitors; also: nearly all actives have a fitted effect of over 65% in size; as to growth rescue (activation): % of control where 0% means no effect
Details: Yeast expressing alpha-synuclein, BacTiter-Glo, 24 h; Potency: growth rescue unless noted; growth rescue (activation): at 46.1 µM (top of the series) unless noted
How it was run: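 Galactose-induced alpha-syn yeast (OD600=0.02, raffinose-pregrown) + pinned cpd, 24 hr, 30 deg C; growth by BacTiter-Glo luminescence. Growth restoration scores as activation.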
In the case of `CCOC(=O)C1CCCN(CCC(=O)Nc2ccc(Br)c(C)c2)C1` (stereo not drawn), the Potency is reported as inconclusive [activator, single point]. With `C=C1CCC2C(C)(CO)C(O)CCC2(C)C1C/C=C1\C(=O)OCC1O` (stereo not drawn) the Potency was “inactive”. With `CCCC(=O)NC(=S)NNC(=O)c1ccc([N+](=O)[O-])cc1` the Potency was active: 20 µM. With `O=C(O/N=C(\c1ccccc1)c1ccncc1)c1ccccc1Cl` the Potency was inconclusive [activator, full curve, poor fit]. With `COC(=O)c1ccc(NC(=O)c2cccnc2)cc1` the Potency was inconclusive [activator, single point]. With `O=CN/N=C/c1c(O)ccc2ccccc12` the Potency was inconclusive [activator, single point]. With `Cc1ccc(N(CC(=O)Nc2ccc3c(c2)OCCO3)S(=O)(=O)c2c(C)noc2C)cc1` the Potency was inconclusive [activator, single point]. In the case of `O=S(=O)(NCCOc1ccccc1Cl)c1ccc2oc3ccccc3c2c1`, the Potency is reported as inconclusive [activator, single point]. In the case of `CCN(c1ccccc1)c1nc2ccsc2c(=O)s1`, the Potency is reported as “inactive”. For `COc1ccc2c(C)cc(SCC#N)nc2c1`, the Potency was inconclusive [activator, single point]. In the case of `CN(C)CCN1C(=O)C(=O)/C(=C(/O)c2ccc(F)cc2)C1c1ccccc1F` (stereo not drawn), the Potency is reported as inconclusive [activator, single point]. In the case of `CN(N=O)c1ccc(CC2CCc3ccccc32)cc1` (stereo not drawn), the Potency is reported as “inactive”. With `COc1cc(C(C)=O)ccc1OCC(O)Cn1nc(C)c(Br)c1C` (stereo not drawn) the Potency was inconclusive [activator, single point]. In the case of `Nc1cccc2c1C(=O)N(Cc1cccc(Cl)c1)C2=O`, the Potency is reported as inconclusive [activator, single point]. For `Cc1ccc(C(=O)O/N=C/c2c(Cl)n(C)c3ccccc23)cc1`, the Potency was “inactive”. With `COc1ccc2nc3ccccc3nc2c1` the Potency was inconclusive [activator, single point]. In the case of `COC(=O)c1ccc2nc(-c3ccco3)c(Cc3cccc(F)c3)n2c1`, the Potency is reported as inconclusive [activator, single point]. With `CCCCN(CCCC)C1=C(C(=O)c2ccccc2)N(CC)S(=O)(=O)c2ccccc21` the growth rescue (activation) was inconclusive: -60.6% [activator]. In the case of `CC(=O)NC(c1cccc(F)c1)c1nc(-c2cccc(C(C)C)c2)cs1` (stereo not drawn), the Potency is reported as inconclusive [activator, single point]. For `COc1ccc(-c2cc(C3CCN(c4ncccc4[N+](=O)[O-])CC3)[nH]n2)cc1`, the Potency was inconclusive [activator, single point]. In the case of `CCn1c(COc2ccc(Cl)cc2)nnc1SCc1ccc(C#N)cc1`, the Potency is reported as inconclusive [activator, single point]. With `Cc1cc(C)nc(Nc2ccccc2Br)n1` the Potency was “inactive”. In the case of `CCOc1ccc(NC(=O)CN(C)C(=O)C2CC(=O)N(c3cccc(SC)c3)C2)cc1OCC` (stereo not drawn), the Potency is reported as inconclusive [activator, single point]. With `O=C(COc1ccc([N+](=O)[O-])cc1)NNC(=S)NC(=O)c1ccc(Br)cc1` the Potency was inconclusive [activator, single point]. For `O=C(NCCCc1nc2ccccc2n1CCCCOc1ccccc1)C1CCCCC1`, the Potency was inconclusive [activator, single point]. For `COc1ccc(OCC(O)CN2CCNCC2)cc1` (stereo not drawn), the Potency was “inactive”. For `CN=C(Nc1ccc(C)c(C)c1)SC1CC(=O)N(c2ccc(OC)cc2)C1=O` (stereo not drawn), the Potency was inconclusive [activator, single point]. With `O=C(O)CC1CCC(=C(Cl)Cl)C1` (stereo not drawn) the Potency was active: 11.2 µM. For `CCOC(=O)C1CCN(C(=O)c2ccc(Oc3cc(Cl)cc(Cl)c3)o2)CC1`, the Potency was inconclusive [activator, single point]. In the case of `CS(=O)(=O)N(CC(=O)Nc1ccc(CC#N)cc1)c1ccc(C23CC4CC(CC(C4)C2)C3)cc1`, the Potency is reported as inconclusive [activator, partial curve]. For `COc1ccc(C2=NN3C(=O)c4c(ccc(OC)c4OC)C3C2)cc1` (stereo not drawn), the Potency was “inactive”. For `CCN(CC)c1ccc(C=Nc2ccc(C)cc2)c(O)c1`, the Potency was “inactive”. With `O=C(C[n+]1ccccc1)N/N=C/c1cccc(Cl)c1Cl` the Potency was inconclusive [activator, single point]. With `CN1C(C(=O)Nc2ncccn2)=C(O)c2ccccc2S1(=O)=O` the Potency was inconclusive [activator, single point]. In the case of `CCSc1nc2c([nH]c3ccccc32)c(=O)n1-c1cccc(OC)c1`, the Potency is reported as inconclusive [activator, partial curve]. For `COc1ccc(-c2cc(-c3c(O)c(OC)c4occc4c3OC)[nH]n2)cc1OC`, the Potency was inconclusive [activator, single point]. For `CN1/C(=C\C(=O)CSc2nnc(NCc3ccccc3)s2)C(C)(C)c2ccccc21`, the Potency was inconclusive [activator, single point]. For `CN(C(=O)c1cccc(NC(=O)Cc2ccc(NC(=O)C3CCCN(S(=O)(=O)c4cccc([N+](=O)[O-])c4)C3)cc2)c1)C1CCCC1` (stereo not drawn), the Potency was “inactive”. For `C/C(=N\NC(=S)NCc1ccccc1)c1ccco1`, the Potency was “inactive”. In the case of `O=C(OCn1ncc(Cl)c(Cl)c1=O)c1ccc(C(F)(F)F)cc1`, the Potency is reported as “inactive”. With `Nn1c(Cc2cccc3ccccc23)nnc1SCCOc1ccc(F)cc1` the Potency was inconclusive [activator, single point]. With `O=c1c2ccccc2nnn1CSc1nc2sc3c(c2c(=O)n1CC1CCCO1)CCC3` (stereo not drawn) the Potency was inconclusive [activator, single point]. In the case of `O=C(/C=C/c1ccc(Cl)cc1)N1CCN(c2c(Cl)cccc2[N+](=O)[O-])CC1`, the Potency is reported as “inactive”. With `Cc1ccc(OCCCC(=O)NNC(=O)c2ccccn2)cc1` the Potency was inconclusive [activator, single point]. In the case of `NC(=O)COc1ccc(=O)n(-c2ccccc2)n1`, the Potency is reported as inconclusive [activator, single point]. For `COc1cc(/C=C/C(=O)Nc2cccc(S(=O)(=O)NC3=NCCCCC3)c2)ccc1OCC#N`, the Potency was “inactive”. In the case of `Cc1ccc(NC(=O)CC2COc3ccccc3O2)cc1` (stereo not drawn), the Potency is reported as “inactive”. For `COC(=O)Cn1ccc2cc(S(=O)(=O)N3CCCCCC3)ccc21`, the Potency was “inactive”. With `CCN(C(=O)c1ccccc1F)c1nc(-c2ccc(OC)cc2)cs1` the Potency was “inactive”. For `Cc1nonc1C(=O)N/N=C/c1ccc(O)c(O)c1`, the Potency was “inactive”. With `CC1(c2nnc(-c3ccccc3)o2)CC(c2ccccc2)=NO1` (stereo not drawn) the Potency was inconclusive [activator, single point]. For `CCC1(C)CC(CCNS(=O)(=O)c2ccc(C)cc2)(c2ccc(C)cc2)CCO1` (stereo not drawn), the Potency was inconclusive [activator, single point]. For `O=C(NCc1ccccc1)C(CCc1ccccc1)n1c(=O)c(-c2cc3ccccc3[nH]2)nc2ccccc21` (stereo not drawn), the Potency was inconclusive [activator, single point]. With `COCCNc1nc(-c2ccc(OC)cc2)c(-c2ccc(OC)cc2)s1` the Potency was inconclusive [activator, single point]. For `NC(=O)c1cc(Cl)ccc1OCC(=O)Nc1ccc2c(c1)OCO2`, the Potency was “inactive”. In the case of `Nc1nc(Cl)cc(Nc2ccccc2Cl)n1`, the Potency is reported as “inactive”. In the case of `O=C(Nc1cccc(C(F)(F)F)c1)c1cccc2c(-c3cccnc3)coc12`, the Potency is reported as “inactive”. In the case of `Cc1nc2ccccc2n1C(C)c1nc2ccccc2n1CC(=O)c1ccc(OC(F)(F)F)cc1` (stereo not drawn), the Potency is reported as inconclusive [activator, single point]. For `Cn1c(SCC(=O)N(C2CCCCC2)C2CCCCC2)nnc1-c1cccs1`, the Potency was inconclusive [activator, single point]. In the case of `COc1ccccc1CNCCCCCCNCCCCCCCCNCCCCCCNCc1ccccc1OC`, the Potency is reported as inconclusive [activator, single point]. In the case of `Nc1ccc(C(=O)NC2CCSc3ccccc32)cc1[N+](=O)[O-]` (stereo not drawn), the Potency is reported as inconclusive [activator, single point]. In the case of `CC(=NNC(=S)Nc1cccc(Cl)c1)c1ccccn1`, the growth rescue (activation) is reported as inconclusive: -74.8% [activator]. In the case of `Cc1ccccc1NC(=O)c1cnn(-c2ccccc2)c1C`, the Potency is reported as “inactive”. For `C=CCn1c(=O)/c(=C/c2ccc(F)cc2)s/c1=C(\C#N)c1nnc2n1CCCCC2`, the Potency was inconclusive [activator, single point]. With `CCn1c(COc2cccc(C)c2)nnc1SCC(=O)Nc1cccc(C(=O)OC)c1` the Potency was “inactive”. With `O=C(N/N=C/c1c(O)ccc2ccccc12)C(=O)N1CCCC1` the Potency was active: 22.4 µM. For `CCOP(=O)(OCC)c1nc(-c2cccc3ccccc23)oc1NCc1ccc(OC)cc1`, the Potency was inconclusive [activator, single point]. With `COc1ccc(-c2ccc(C(=O)NCc3ccco3)c3occc23)c(C)c1` the Potency was “inactive”. In the case of `O=c1c(Cl)c(N2CCN(c3ccc(F)cc3)CC2)cnn1C12CC3CC(CC(C3)C1)C2`, the Potency is reported as inconclusive [activator, single point]. For `COc1ccc(C)cc1NC(=O)CCNC(=O)Cn1ccc2ccccc2c1=O`, the Potency was “inactive”. In the case of `COc1ccc(C2NC(=S)N3C(c4ccc(OC)cc4)NC(=S)N23)cc1` (stereo not drawn), the Potency is reported as inconclusive [activator, single point]. For `COc1ccc(CC(=O)NC(=S)Nc2ccc(S(N)(=O)=O)cc2)cc1`, the Potency was “inactive”. With `COc1ccc(S(=O)(=O)Nc2cc(Sc3ncn[nH]3)c(O)c3ccccc23)cc1` the growth rescue (activation) was inconclusive: -81.5% [activator].

Reference: PubChem BioAssay AID652106 (National Center for Advancing Translational Sciences (NCATS), 2013)
Potency is read from the fitted curve at half-maximal effect; tags tell the direction and shape of the fitted curve.
